What was measured:
human CD47 [1] = target: T1, human CD47 (human, UniProt Q08722 part only); assay: SPR, 25 C, 1:1 Langmuir fit
T1 construct: extracellular domain; also called CD47 ECD

human CD47 [2] = target: T1, human CD47; assay: SPR; protein made in E. coli
T1 sequence (Q08722 19-139 limits assumed): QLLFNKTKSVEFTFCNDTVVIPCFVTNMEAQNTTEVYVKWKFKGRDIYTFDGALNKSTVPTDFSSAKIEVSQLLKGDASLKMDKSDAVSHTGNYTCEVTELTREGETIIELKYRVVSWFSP

B1: Wild-type SIRP-α D1 domain variant 2, SEQ ID NO: 2 (receptor)
chain: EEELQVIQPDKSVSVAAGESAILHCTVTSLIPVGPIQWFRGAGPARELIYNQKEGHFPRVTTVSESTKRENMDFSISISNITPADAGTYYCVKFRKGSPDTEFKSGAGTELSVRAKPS
B1 was tested. Which Kd (human CD47 [1]) did it give?
The Kd was 500 nM.

What about the Kd (human CD47 [2]) of the same binder?
The Kd was 500 nM.
